Results on 36 molecules are retold here after the supplement of paper PMC4723716.

± gives the uncertainty stated by the source. Whole data set: some 9,900 compounds, median “viability index relative to DMSO control” near 1, cut for the lowest 2% near 0.85. Some of the results follow.

For the assay, the system named is Plasmodium falciparum NF54 stage V gametocytes. The assay can be described thus: viability index relative to DMSO control (fraction); higher = less gametocyte killing. The following applies: 2.5 µM, library set: Broad Institute DOS, incubation time: 72 h. The gist of the method: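 Stage V gametocytes of P. falciparum NF54 were held in serum-free screening medium at 0.75% gametocytemia and 1.25% hematocrit, 10 µl per well of a 1,536-well plate, and exposed to compound at 2.5 µM for 72 hr at 37°C under low oxygen. A 3 µl mix of 2.5 µM MitoTracker Red CMXRos with 0.13% saponin was then added for one to two hours, after which one field per well was imaged and red particles of 20–70 µm2 were counted. The viability index equals this count divided by the plate mean from wells given solvent alone.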

In the case of `O=C(NCc1cccc(F)c1)[C@@H]1[C@@H](CO)[C@@H]2Cn3c(ccc(-c4ccncc4)c3=O)[C@H]1N2CC1CC1`, the viability index was 1.07 ± 0.025.

With `CO[C@@H](CN(C)Cc1ccc(-c2ccccn2)cc1)[C@H](C)CN(C(=O)Nc1ccc(F)cc1)[C@@H](C)CO`, the viability index was 1.08 ± 0.049.

Regarding `OC[C@@H]1[C@H]2c3ccccc3NC[C@H]2N1Cc1ccccc1Cl`, the viability index came to 1.02 ± 0.021.

`C[C@@H]1CN([C@H](C)CO)C(=O)CCCn2nncc2CO[C@@H]1CN(C)S(=O)(=O)c1ccc2c(c1)OCCCO2`: the viability index was found to be 1.025 ± 0.0016.

`N#C[C@H]1N[C@@H](CO)[C@@H]1c1ccc(C#Cc2ccccc2F)cc1` registered a viability index of 1.142 ± 0.01.

On to `COc1cccc(S(=O)(=O)Nc2ccc3c(c2)C(=O)N(C)C[C@@H](OC)[C@@H](C)CN(Cc2ccccc2F)[C@@H](C)CO3)c1`, for which the viability index is 1.034 ± 0.0034.

For `COc1cccc(-c2ccc([C@H]3[C@@H]4CN(C(=O)C5CCCCC5)C[C@H]3N4)cc2)c1`, the viability index stood at 1.08 ± 0.039.

In turn, `C/C=C/c1ccc([C@H]2[C@@H](CN(C)C(=O)CC3CC3)N(C(=O)C3CC3)[C@H]2CO)cc1` returned a viability index of 0.977 ± 0.058.

In turn, `CO[C@H]1CN(C)C(=O)c2cc(NS(=O)(=O)CC(F)(F)F)ccc2OC[C@@H](C)NC[C@H]1C` showed a viability index of 1.07 ± 0.0046.

`C[C@@H]1CN([C@H](C)CO)C(=O)c2cc(NC(=O)Nc3cccc4ccccc34)ccc2O[C@@H](C)CCCCO[C@@H]1CN(C)S(=O)(=O)c1cn(C)cn1` showed a viability index of 0.948 ± 0.077.

Turning to `Cc1ccc(CN2CC(=O)N3[C@@H](CO)[C@H](c4ccc(-c5ccccc5F)cc4)[C@@H]3C2)cc1`, the viability index was found to be 0.96 ± 0.021.

For `CCc1cnc(N2[C@H](CO)[C@@H](c3ccc(C4=CCCCC4)cc3)[C@@H]2C#N)s1`, the viability index came out at 1.085 ± 0.0089.

For `O=C(c1cnccn1)N1CC(=O)N2[C@@H](CO)[C@@H](c3ccc(-c4cccc(F)c4)cc3)[C@@H]2C1`, the viability index worked out at 1.02 ± 0.058.

In turn, `COc1cccc(-c2ccc3n(c2=O)C[C@@H]2N[C@H]3[C@H](C(=O)N3CCCCC3)[C@H]2CO)c1` displayed a viability index of 0.998 ± 0.044.

In the case of `CN(C)Cc1cn(CC[C@@H]2CC[C@H](NC(=O)Cc3cccnc3)[C@H](CO)O2)nn1`, the viability index worked out at 1.04 ± 0.047.

Turning to `COCCNC(=O)C[C@@H]1CC[C@H]2[C@H](COc3ccc(NC(=O)Nc4cccc(F)c4)cc3C(=O)N2C)O1`, the viability index worked out at 1.07 ± 0.041.

Turning to `COc1ccc(C(=O)Nc2ccc3c(c2)C(=O)N(C)[C@H]2CC[C@@H](CC(=O)NCC4CC4)O[C@H]2CO3)cc1`, the viability index was 1.01 ± 0.091.

Regarding `C[C@@H]1CCCCO[C@H](CN(C)Cc2ccc(C(F)(F)F)cc2)[C@H](C)CN([C@@H](C)CO)C(=O)c2cc(NC(=O)Nc3cccc4ccccc34)ccc2O1`, the viability index came to 1.04 ± 0.12.

In turn, `C=C(C)C[C@@H]1CCn2cc(nn2)COCCNC1=O` gave a viability index of 1.06 ± 0.054.

As for `C/C=C/c1ccc([C@@H]2[C@H](C#N)N(c3nc(CC)cs3)[C@H]2CO)cc1`, the viability index amounted to 1.06 ± 0.08.

As to `C/C=C/c1ccccc1[C@@H]1[C@@H](C#N)N(C(=O)Cc2ccccn2)[C@H]1CO`, the viability index is 1.06 ± 0.026.

For `C[C@@H]1CN([C@@H](C)CO)C(=O)CCCn2nncc2CO[C@@H]1CN(C)C(=O)c1ccc(N2CCN(C)CC2)cc1`, the viability index was determined as 1.08 ± 0.044.

The molecule `COCC(=O)Nc1ccc2c(c1)[C@@H]1C[C@H](CC(=O)N[C@@H](C)c3ccccc3)O[C@H](CO)[C@@H]1O2` gave a viability index of 1.092 ± 0.0061.

`CC(=O)N1[C@H](CO)[C@@H]2c3ccccc3N(C(=O)c3ccc(F)cc3)C[C@@H]21` displayed a viability index of 1.03 ± 0.17.

Consider `CCCC#Cc1ccc2c(c1)O[C@H](CN(C)Cc1ccccn1)[C@@H](C)CN([C@@H](C)CO)S2(=O)=O`, for which the viability index was determined as 1.02 ± 0.084.

As to `C[C@@H]1CN([C@@H](C)CO)C(=O)c2cc(-c3ccc(F)cc3)cnc2O[C@H]1CN(C)S(C)(=O)=O`, the viability index was found to be 1.07 ± 0.011.

`C/C=C/c1ccc([C@H]2[C@@H](CO)N(Cc3cncnc3)C23CN(C(=O)COC)C3)cc1`: the viability index worked out at 0.929 ± 0.081.

The molecule `O=C(Cc1cccnc1)N1[C@H](CO)[C@H](c2ccccc2)[C@@H]1CNCC1CCC1` showed a viability index of 1.08 ± 0.013.

In turn, `O=C(Nc1cc(F)ccc1F)N1CCCCN2[C@@H](CO)[C@@H](c3ccc(C4=CCCCC4)cc3)[C@@H]2C1` registered a viability index of 0.818 ± 0.063.

In turn, `CCCC(=O)N1C[C@@]2(C1)CN(CC1CC1)[C@@H](CO)c1[nH]c3cc(OC)ccc3c21` came in with a viability index of 1.03 ± 0.03.

In the case of `COc1cccc(NC(=O)N2CC(=O)N3[C@H](C2)[C@H](c2ccc(C4=CCCCC4)cc2)[C@@H]3CO)c1`, the viability index turned out to be 1.03 ± 0.021.

Take `O=C(c1ccccc1F)N1CC[C@H]2[C@H](CO)Nc3ccc(Br)cc3[C@H]21`: the viability index was determined as 1.079 ± 0.0094.

With `CO[C@H]1CN(C)C(=O)c2ccc(NS(C)(=O)=O)cc2OC[C@@H](C)N(CC2CC2)C[C@H]1C`, the viability index came out at 1.09 ± 0.065.

In turn, `CCN1[C@H](C(=O)NCCOC)[C@@H](CO)[C@@H]2Cn3c(ccc(-c4ccc(C(=O)N(C)C)cc4)c3=O)[C@@H]21` registered a viability index of 0.99 ± 0.058.

The molecule `C[C@@H]1CN([C@@H](C)CO)C(=O)Cc2cc(NC(=O)Cn3cnnn3)ccc2O[C@@H]1CN(C)S(=O)(=O)c1ccc(Cl)cc1` displayed a viability index of 1.04 ± 0.013.

Take `CO[C@H]1CN(C)C(=O)c2cc(NC(=O)c3ccc(Oc4ccccc4)cc3)ccc2OC[C@@H](C)NC[C@@H]1C`: the viability index was found to be 1.07 ± 0.091.
